{
  "source": "the supplement of paper PMC12889115",
  "note": "The other results are listed elsewhere or left out. Cut-off read from the data, not from the text of the source: active = 25% or less and inactive = the rest. Single values are uncertain, as repeats are few or missing.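 Note: compounds tested were the hits of an earlier 50 µM broth growth screen of a drug-like diversity library run with polymyxin B.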",
  "data": [
    {"test_system": "Salmonella enterica serovar Typhimurium SL1344", "test": "intramacrophage bacterial GFP load (SAFIRE), percent of DMSO control (% of DMSO); higher = more intracellular bacteria (less inhibition)", "conditions": "25 µM; system: infected RAW 264.7 macrophages", "method": "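Secondary screen of the 553 primary hits at 25 µM. (i) S. Typhimurium SL1344 grown in Mueller-Hinton broth with 0.5 µg/mL polymyxin B, OD600 read after 18 h. (ii) SAFIRE assay: RAW 264.7 macrophages infected with S. Typhimurium sifB::gfp (MOI 30); compound added 2 h post-infection; cells fixed at 18 h; GFP-positive pixel fraction per macrophage imaged by confocal microscopy and expressed as % of DMSO control.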", "values": [
      {"smiles": "O=S(=O)(CC1CC1)c1ncc(CN2CCSCC2)n1CC1CCCCC1", "intramacrophage bacterial GFP load": "inactive: 44.7"},
      {"smiles": "CN(Cc1ccccc1Cl)C(=O)c1coc(COc2cccc(F)c2)n1", "intramacrophage bacterial GFP load": "inactive: 27.7"},
      {"smiles": "CSc1ccccc1C(=O)N1CCC(C(Cc2ccccc2F)N(C)C(=O)c2cccs2)CC1", "note": "(centres undefined)", "intramacrophage bacterial GFP load": "inactive: 39.4"},
      {"smiles": "CC(C)c1cc(CN2CCC(n3nccc3NC(=O)c3ccc4c(c3)OCO4)CC2)n[nH]1", "intramacrophage bacterial GFP load": "inactive: 159"}
    ]}
  ]
}
